Reference: PMC9911399, “Two distinct binding modes provide the RNA-binding protein RbFox with extraordinary sequence specificity”
Substitutions are numbered along the chain they refer to; changes in the protein carry UniProt numbers. The list shows a part of the results.

T1: RBFOX1 RRM (Homo sapiens, UniProt Q9NWB1 109-208)
T1 sequence: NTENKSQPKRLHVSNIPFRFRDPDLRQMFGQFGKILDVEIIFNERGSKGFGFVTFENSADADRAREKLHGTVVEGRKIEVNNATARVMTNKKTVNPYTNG

B1: CUGAUCU (DNA:RNA)
RNA: GGGAGACCGGAAUUCAGAUUGUCCCUGAUCUUUAAAUCCCGUCGUAGCCACCA
DNA 1: CAATCTGAATTCCGGTCTCCC
DNA 2: TGGTGGCTACGACGGGATT
B2: ACGACCA (DNA:RNA)
RNA: B1 RNA with C25A, U26C, U29C, U31A
DNA 1: CAATCTGAATTCCGGTCTCCC
DNA 2: TGGTGGCTACGACGGGATT
B3: GCUCCGG (DNA:RNA)
RNA: GGGAGACCGGAAUUCAGAUUGUCCGCUCCGGUUAAAUCCCGUCGUAGCCACCA
DNA 1: CAATCTGAATTCCGGTCTCCC
DNA 2: TGGTGGCTACGACGGGATT
B4: GCAAGAU (DNA:RNA)
RNA: B1 RNA with C25G, U26C, G27A, U29G, C30A
DNA 1: CAATCTGAATTCCGGTCTCCC
DNA 2: TGGTGGCTACGACGGGATT
B5: CGUGGGA (DNA:RNA)
RNA: B3 RNA with G25C, C26G, C28G, C29G, G31A
DNA 1: CAATCTGAATTCCGGTCTCCC
DNA 2: TGGTGGCTACGACGGGATT
B6: GUCGGCU (DNA:RNA)
RNA: B1 RNA with C25G, G27C, A28G, U29G
DNA 1: CAATCTGAATTCCGGTCTCCC
DNA 2: TGGTGGCTACGACGGGATT
B7: GUUGGUC (DNA:RNA)
RNA: B3 RNA with C26U, C28G, C29G, G30U, G31C
DNA 1: CAATCTGAATTCCGGTCTCCC
DNA 2: TGGTGGCTACGACGGGATT
B8: UCUAGCC (DNA:RNA)
RNA: B1 RNA with C25U, U26C, G27U, U29G, U31C
DNA 1: CAATCTGAATTCCGGTCTCCC
DNA 2: TGGTGGCTACGACGGGATT
B9: AAUUGAG (DNA:RNA)
RNA: B3 RNA with G25A, C26A, C28U, C29G, G30A
DNA 1: CAATCTGAATTCCGGTCTCCC
DNA 2: TGGTGGCTACGACGGGATT
B10: UGACCGC (DNA:RNA)
RNA: B3 RNA with G25U, C26G, U27A, G31C
DNA 1: CAATCTGAATTCCGGTCTCCC
DNA 2: TGGTGGCTACGACGGGATT
B11: AUUAACU (DNA:RNA)
RNA: B1 RNA with C25A, G27U, U29A
DNA 1: CAATCTGAATTCCGGTCTCCC
DNA 2: TGGTGGCTACGACGGGATT
B12: AGUGAAC (DNA:RNA)
RNA: B3 RNA with G25A, C26G, C28G, C29A, G30A, G31C
DNA 1: CAATCTGAATTCCGGTCTCCC
DNA 2: TGGTGGCTACGACGGGATT
B13: GACGAUG (DNA:RNA)
RNA: B3 RNA with C26A, U27C, C28G, C29A, G30U
DNA 1: CAATCTGAATTCCGGTCTCCC
DNA 2: TGGTGGCTACGACGGGATT
B14: CGGGCGA (DNA:RNA)
RNA: B1 RNA with U26G, A28G, U29C, C30G, U31A
DNA 1: CAATCTGAATTCCGGTCTCCC
DNA 2: TGGTGGCTACGACGGGATT
B15: GAACUUA (DNA:RNA)
RNA: B3 RNA with C26A, U27A, C29U, G30U, G31A
DNA 1: CAATCTGAATTCCGGTCTCCC
DNA 2: TGGTGGCTACGACGGGATT
B16: UCCUAUA (DNA:RNA)
RNA: B3 RNA with G25U, U27C, C28U, C29A, G30U, G31A
DNA 1: CAATCTGAATTCCGGTCTCCC
DNA 2: TGGTGGCTACGACGGGATT
B17: CACUACG (DNA:RNA)
RNA: B1 RNA with U26A, G27C, A28U, U29A, U31G
DNA 1: CAATCTGAATTCCGGTCTCCC
DNA 2: TGGTGGCTACGACGGGATT
B18: GGUGGUC (DNA:RNA)
RNA: B3 RNA with C26G, C28G, C29G, G30U, G31C
DNA 1: CAATCTGAATTCCGGTCTCCC
DNA 2: TGGTGGCTACGACGGGATT
B19: CAUUCUG (DNA:RNA)
RNA: B3 RNA with G25C, C26A, C28U, G30U
DNA 1: CAATCTGAATTCCGGTCTCCC
DNA 2: TGGTGGCTACGACGGGATT
B20: GUGUACG (DNA:RNA)
RNA: B1 RNA with C25G, A28U, U29A, U31G
DNA 1: CAATCTGAATTCCGGTCTCCC
DNA 2: TGGTGGCTACGACGGGATT
B21: GGAAAUU (DNA:RNA)
RNA: B1 RNA with C25G, U26G, G27A, U29A, C30U
DNA 1: CAATCTGAATTCCGGTCTCCC
DNA 2: TGGTGGCTACGACGGGATT
B22: AUCUCGG (DNA:RNA)
RNA: B3 RNA with G25A, C26U, U27C, C28U
DNA 1: CAATCTGAATTCCGGTCTCCC
DNA 2: TGGTGGCTACGACGGGATT
B23: CUAUGUG (DNA:RNA)
RNA: B1 RNA with G27A, A28U, U29G, C30U, U31G
DNA 1: CAATCTGAATTCCGGTCTCCC
DNA 2: TGGTGGCTACGACGGGATT
B24: AAGCGCU (DNA:RNA)
RNA: B1 RNA with C25A, U26A, A28C, U29G
DNA 1: CAATCTGAATTCCGGTCTCCC
DNA 2: TGGTGGCTACGACGGGATT
B25: GGAGGAG (DNA:RNA)
RNA: B3 RNA with C26G, U27A, C28G, C29G, G30A
DNA 1: CAATCTGAATTCCGGTCTCCC
DNA 2: TGGTGGCTACGACGGGATT
B26: CAUCUAA (DNA:RNA)
RNA: B1 RNA with U26A, G27U, A28C, C30A, U31A
DNA 1: CAATCTGAATTCCGGTCTCCC
DNA 2: TGGTGGCTACGACGGGATT
B27: AUAAGUC (DNA:RNA)
RNA: B1 RNA with C25A, G27A, U29G, C30U, U31C
DNA 1: CAATCTGAATTCCGGTCTCCC
DNA 2: TGGTGGCTACGACGGGATT
B28: ACUCCGC (DNA:RNA)
RNA: B3 RNA with G25A, G31C
DNA 1: CAATCTGAATTCCGGTCTCCC
DNA 2: TGGTGGCTACGACGGGATT
B29: UCAACGG (DNA:RNA)
RNA: B3 RNA with G25U, U27A, C28A
DNA 1: CAATCTGAATTCCGGTCTCCC
DNA 2: TGGTGGCTACGACGGGATT
B30: GCCUUCA (DNA:RNA)
RNA: B1 RNA with C25G, U26C, G27C, A28U, U31A
DNA 1: CAATCTGAATTCCGGTCTCCC
DNA 2: TGGTGGCTACGACGGGATT
B31: CCUUGAC (DNA:RNA)
RNA: B3 RNA with G25C, C28U, C29G, G30A, G31C
DNA 1: CAATCTGAATTCCGGTCTCCC
DNA 2: TGGTGGCTACGACGGGATT

These binders were tested against T1, RBFOX1 RRM (assay: EMSA; HiTS-Eq, 1 nM pool, 10 min; buffer printed only for the single-RNA assays: 10 mM Tris pH 7.5, 150 mM NaCl, 3.4 mM EDTA, 0.001% NP-40, 30 C). Details: tags: His6 N-terminal (pET28a); label: 5' 32P.
Procedure, shortened: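 These values rest on relative association constants, computed from read-count changes of each RNA species versus the control reaction and normalised to the cognate motif. Reads came from free RNA recovered by 8% native PAGE after purified RbFox RRM (wild type or mutant) at increasing concentrations was equilibrated for 10 min in 50 µL with 1 nM of a 5′-radiolabelled pool with 7 randomized nucleotides and DNA-annealed flanks.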

Row | Binder | binding signal
1 | B1 | 0.0119 KA relative to UGCAUGU
2 | B2 | 0.003 KA relative to UGCAUGU
3 | B3 | 0.00735 KA relative to UGCAUGU
4 | B4 | 0.0115 KA relative to UGCAUGU
5 | B5 | 0.00274 KA relative to UGCAUGU
6 | B6 | 0.0193 KA relative to UGCAUGU
7 | B7 | 0.0255 KA relative to UGCAUGU
8 | B8 | 0.0097 KA relative to UGCAUGU
9 | B9 | 0.014 KA relative to UGCAUGU
10 | B10 | 0.0146 KA relative to UGCAUGU
11 | B11 | 0.00102 KA relative to UGCAUGU
12 | B12 | 0.0126 KA relative to UGCAUGU
13 | B13 | 0.0266 KA relative to UGCAUGU
14 | B14 | 0.0269 KA relative to UGCAUGU
15 | B15 | 0.00145 KA relative to UGCAUGU
16 | B16 | 0.00228 KA relative to UGCAUGU

Row | Binder | binding signal
17 | B17 | 0.0044 KA relative to UGCAUGU
18 | B18 | 0.0123 KA relative to UGCAUGU
19 | B19 | 0.0143 KA relative to UGCAUGU
20 | B20 | 0.0131 KA relative to UGCAUGU
21 | B21 | 0.0113 KA relative to UGCAUGU
22 | B22 | 0.00679 KA relative to UGCAUGU
23 | B23 | 0.018 KA relative to UGCAUGU
24 | B24 | 0.00686 KA relative to UGCAUGU
25 | B25 | 0.0159 KA relative to UGCAUGU
26 | B26 | 0.0007 KA relative to UGCAUGU
27 | B27 | 0.00397 KA relative to UGCAUGU
28 | B28 | 0.00478 KA relative to UGCAUGU
29 | B29 | 0.00716 KA relative to UGCAUGU
30 | B30 | 0.00904 KA relative to UGCAUGU
31 | B31 | 0.0113 KA relative to UGCAUGU
